Source: the supplement of paper PMC3334620
Over roughly 33,000 sequences, “E-score (-0.5 to 0.5)” has its median near -0.035; the highest 2% begin near 0.34. This is one part of the list.

biological target: T1, Mot3 (UniProt P54785); assay: PBM E-score (8-mer binding enrichment) (E-score (-0.5 to 0.5)); higher = stronger / more preferred TF binding; most listed sequences are background and not binding sites; details: protein concentration: 200 nM; construct: GST-full length
T1 sequence: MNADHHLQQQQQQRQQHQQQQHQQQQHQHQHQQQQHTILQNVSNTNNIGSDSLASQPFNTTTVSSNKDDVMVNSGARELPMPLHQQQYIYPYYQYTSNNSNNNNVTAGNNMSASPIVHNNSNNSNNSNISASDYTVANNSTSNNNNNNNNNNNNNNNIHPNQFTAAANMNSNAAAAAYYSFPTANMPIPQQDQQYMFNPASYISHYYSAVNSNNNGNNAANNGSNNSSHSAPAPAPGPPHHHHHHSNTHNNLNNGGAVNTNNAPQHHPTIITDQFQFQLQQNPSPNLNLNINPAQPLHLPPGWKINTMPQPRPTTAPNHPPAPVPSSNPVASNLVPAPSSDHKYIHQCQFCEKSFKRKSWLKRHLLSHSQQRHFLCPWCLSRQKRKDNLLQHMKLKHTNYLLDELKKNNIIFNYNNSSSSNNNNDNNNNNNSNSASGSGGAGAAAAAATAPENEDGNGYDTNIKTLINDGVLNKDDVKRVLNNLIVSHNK
Procedure: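 Universal 'all 10-mer' protein binding microarrays (Agilent AMADID 015681) probed with GST-tagged S. cerevisiae TFs (full-length or DBD) made by in vitro transcription/translation (PURExpress), about 100-200 nM. Bound TF was detected with fluorescent anti-GST. Each ungapped 8-mer (which stands for itself and its reverse complement) is scored by the PBM enrichment score (E-score), a modified Wilcoxon-Mann-Whitney statistic from -0.5 to +0.5, computed with the Universal PBM Analysis Suite. Scale: above 0.35 generally sequence-specific binding.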

Row | Sequence | PBM E-score
1 | TGGTTGAA | -0.00559
2 | GGATCACA | 0.0449
3 | AGAGATGG | 0.0575
4 | ACAAATCA | 0.0837
5 | GTGATAAC | 0.109
6 | TAGAGAGA | -0.0698
7 | CCCCAGGG | -0.192
8 | CTCCAACC | 0.0855
9 | CGGTTCTA | -0.141
10 | ATGCCCAC | -0.15
11 | CAATTGCC | 0.175
12 | GCGTCGCC | -0.0655
13 | CACCGCCA | -0.135
14 | CAACCAAG | -0.047
15 | CGGGGGCA | -0.202
16 | CAAAAACG | 0.152
17 | CTCGAAAA | -0.084
18 | AAACCCTA | -0.01
19 | ACCTCTGG | -0.0514
20 | CAGACCCC | -0.255
21 | ACATGAGC | 0.24
22 | GAACGATA | -0.00294
23 | AGTAACAG | 0.0866
24 | GACGAATC | -0.0626
25 | CGCTCATA | -0.225

Row | Sequence | PBM E-score
26 | AGATACCC | -0.164
27 | AAGCCCGG | -0.302
28 | TACGCCGA | -0.0818
29 | GGTACCGA | 0.00801
30 | CACAGCTG | -0.0873
31 | CTCACGGC | -0.0783
32 | ATTGTACC | 0.0661
33 | AGTCTTAG | -0.168
34 | CAGTTAGG | 0.0993
35 | GGCACTTA | 0.282
36 | AAATAGGG | 0.16
37 | CGCACTGC | -0.0709
38 | AAATTTAC | 0.291
39 | GAAAAACC | 0.0532
40 | CTCGGTGC | -0.0378
41 | AACCATCG | 0.114
42 | AGCTCAGC | -0.206
43 | AAGCGGGG | -0.0612
44 | CGTTTAAG | 0.0675
45 | ACGCAGGG | 0.158
46 | GTGAATCA | 1e-05
47 | AACTGTAC | -0.0246
48 | AGCGAATA | -0.188
49 | TCAATGCA | 0.0286
50 | CTGATGTA | 0.06

Row | Sequence | PBM E-score
51 | AAATGTGT | 0.215
52 | AGACGTCT | -0.264
53 | ACCAGGGT | -0.31
54 | CAGAATGG | -0.224
55 | GGGTAAAC | -0.0508
56 | GAACAGTA | 0.0147
57 | ACCTTGAG | 0.046
58 | CCGGCCCC | -0.378
59 | GTTATACA | 0.295
60 | GAGGGGAA | -0.296
61 | CGATTCTC | -0.141
62 | ACGTACTA | 0.158
63 | GCGCTCCA | -0.136
64 | CCTACTCC | 0.0732
65 | GACCCGCA | -0.139
66 | ATTAAACC | 0.0249
67 | ATTCTTGG | -0.0632
68 | GGACTTGA | -0.278
69 | CGGACGAA | -0.0412
70 | ACGGGCCC | -0.168
71 | GGCCCACC | -0.222
72 | AGACCCCT | -0.181
73 | ATCAATGA | 0.111
74 | GAAGGTCA | 0.031
75 | CCGTTCAC | -0.251

Row | Sequence | PBM E-score
76 | CCTACGAA | 0.132
77 | CGACGGAG | -0.151
78 | ATTGATGG | 0.0374
79 | CACCGGTG | -0.379
80 | CTTGTGTA | 0.333
81 | CCGAAAGA | -0.0786
82 | CGCATCGC | -0.268
83 | GAATCTCC | -0.126
84 | CCCTTCTC | -0.136
85 | ACCTCCTC | -0.15
86 | CTAGTAAC | 0.0483
87 | GACAATAA | -0.0186
88 | CGACACTC | -0.168
89 | ATCCTCCG | -0.354
90 | ATCGTCGC | 0.0287
91 | CAGCGCGG | -0.14
92 | GCCCCACA | -0.15
93 | AAAGAGCG | -0.247
94 | AACAAGCC | 0.0347
95 | GCTATTCC | -0.25
96 | CGTCCTTA | -0.185
97 | GCGGGTCC | -0.274
98 | CTGGCTCA | -0.196
99 | CGTGGGAC | -0.283
100 | TCGAACAA | 0.0662

Row | Sequence | PBM E-score
101 | AATATAGG | 0.202
102 | GAATTGAC | 0.0399
103 | ATGCCTTG | 0.267
104 | CCAGGGCG | -0.231
105 | CTCCACGA | -0.171
106 | ACATCTGG | -0.189
107 | GAAGGAGC | -0.251
108 | CATATTCG | -0.0946
109 | GTAGACAA | 0.219
110 | GCGTATAA | 0.239
111 | CGCGCTCC | -0.0668
112 | AACTCCGG | -0.178
113 | GAGTGCTA | -0.275
114 | ATCTATAG | -0.0456
115 | CTGATCCA | 0.0225
116 | ACATCAAG | 0.119
117 | TGAACCAA | 0.165
118 | AAATCAAA | 0.067
119 | ATCGCTAC | -0.15
120 | AGTTACCG | -0.0154
121 | ACGGTATG | 0.136
122 | AGTTTGTC | -0.0507
123 | AATACGGG | 0.0453
124 | CGCCCGTC | -0.113
125 | ACAGCGCC | -0.0469

Row | Sequence | PBM E-score
126 | AAGACCTA | -0.111
127 | ACAGGTCA | 0.0389
128 | CTCGGGTA | -0.0157
129 | GTAAGGTA | 0.321
130 | GCGCCGCC | -0.0908
131 | ATTCTACG | 0.105
132 | GTGTACTA | 0.255
133 | GTCGGAAA | -0.109
134 | AAACCCCC | -0.246
135 | AGACTTTC | -0.187
136 | CTATCTCA | -0.0109
137 | ACATAATC | 0.225
138 | CAAGCTTG | 0.00285
139 | ATGCCCTG | -0.124
140 | AGAGGAAT | 0.0386
141 | GATGCGTA | 0.124
142 | CAGTTCTC | -0.231
143 | ACCTTCTG | 0.101
144 | AGAGTATA | -0.0252
145 | GAGTTCCC | -0.129
146 | ATGAGCCG | -0.229
147 | AGTAGATC | -0.0347
148 | CTGAGTGA | -0.00071
149 | AAGTCCCA | -0.24
150 | CAACAGTA | 0.154

Row | Sequence | PBM E-score
151 | AATATTCA | 0.0946
152 | GCTGTCGA | -0.12
153 | CACTTACA | 0.16
154 | CCCTATCC | -0.222
155 | AAAGAAAT | 0.147
156 | GGGGCTCA | -0.219
157 | AAAAAGCG | 0.11
158 | ACCGACAA | -0.11
159 | CGGGACCA | -0.282
160 | AATTTCAT | -0.177
161 | CATTTGAG | 0.0703
162 | CACTGCTG | -0.31
163 | ATTCCCCG | -0.0331
164 | AGTTTATG | -0.0194
165 | TCATGAAA | -0.27
166 | GAGCCGGC | -0.326
167 | CGTGAGCC | -0.104
168 | CAGTTCGG | -0.224
169 | ATGTGTCG | 0.0871
170 | CACCTCTC | -0.213
171 | CTAAGATA | 0.0339
172 | GTTTTCGA | -0.00025
173 | AAAGTTCC | -0.118
174 | CATTGGTC | -0.138
175 | CACAAATC | -0.034

Row | Sequence | PBM E-score
176 | AACGAAAG | 0.084
177 | GGGGTGGA | -0.364
178 | AATGTAGT | 0.244
179 | ACTTGAGA | -0.0384
180 | TCTACAAA | 0.17
181 | AACATGTA | 0.42
182 | AATCTTAT | 0.0528
183 | ATCAATTA | 0.193
184 | ACTTTCCG | -0.182
185 | AGCAATAC | 0.117
186 | TGTGTGAA | 0.254
187 | AGGTGGCG | -0.167
188 | ACCTTGGG | -0.132
189 | TCAAACAA | 0.0814
190 | ATGTTCTG | 0.105
191 | CCATTCCG | -0.122
192 | AAGTCAAG | -0.128
193 | CTTTGAAC | -0.158
194 | CGGATTGC | -0.247
195 | AGCGCAAC | 0.0365
196 | CACTTCAC | 0.011
197 | AATAAGGC | 0.175
198 | GAGAAATA | 0.0575
199 | ATCCAGAA | 0.0867
200 | ATCGCCTA | -0.0997

Row | Sequence | PBM E-score
201 | GGGTACCA | -0.0217
202 | ACAGAGTA | 0.174
203 | ATTAAGAA | 0.161
204 | GCATTAGC | -0.23
205 | CGGTCGAA | -0.156
206 | CAGTCTGA | -0.29
207 | ATTCTCCC | -0.0493
208 | GGACCTCC | -0.216
209 | CCCGTTTA | 0.187
210 | CACCCCAA | -0.014
211 | ACAAATAG | 0.12
212 | AAATCGTT | 0.0275
213 | CCCTGCCA | -0.199
214 | CCAGGCAG | -0.119
215 | CCGTATAA | -0.0706
216 | CCGGGGGC | -0.235
217 | ACAGAGCT | -0.118
218 | CAGTCAGA | -0.198
219 | TACCTTAA | 0.239
